Measurements as given in the RNAGym collection of RNA variant scans (doi:10.1093/nar/gkz1192).
The source gives no read counts; variants with many changes may rest on few reads.

B1: CPEB3 Ribozyme (parent)
chain: UAACAGGGGGCCACAGCAGAAGCGUUCACGUCGCAGCCCCUGUCAGAUUCUGGUGAAUCUGCGAAUUCUGCUGUAUAUCUC

Variants of: B1
Test: self-cleavage, relative activity (ratio to wild type); higher = more cleavage; in vitro, sequencing
Outline: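 Relative activity compares each variant's cleaved/total read fraction with that of the unmutated ribozyme. To get these fractions, barcoded CPEB3 ribozyme libraries from rounds of error-prone PCR were transcribed with T7 RNA polymerase for 5 hours at 37°C and then given 15 min of DNase I treatment before EDTA was added. The RNAs were reverse transcribed with template switching and sequenced on Illumina, and DNA sequencing linked barcodes to variants. A minimum of 5 reads applied, and three batches were averaged.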

| Variant | self-cleavage |
| --- | --- |
| G8A A15G U25C | 0.31 |
| G7U G9U U76C | 0.06 |
| G8A A15G U31C G61A | 0.19 |
| G8A A15G A64G U72G | 0.06 |
| G8A A15U A28G A57G U67C | 0.1 |
| G7U A15U U25A A57G A75G | 0.04 |
| G7U A15U U31C U54C G73A | 0.05 |
| G8A A15G U58C U72C U78A | 0.04 |
| G8A A13U G36A U72C | 0.25 |
| G7U A15U A20C | 0.19 |
| G7U A20U A56G | 0.08 |
| G7U A20U U41C U49C U60C U74A U76A | 0.05 |
| G7U A20U U25A U26A C37A G46A U49C | 0.03 |
| G7U A56U C81A | 0.27 |
| G7C A13G G36A A64U | 0.05 |
| G8A A15G U25A A45G U51C | 0.04 |
| G7U C40U U41C G53C | 0.07 |
| G7C A13U C40U A47G U78C | 0.26 |
| G7C A20G A35G U48C | 0.31 |
| G7U U43C A47U U60C | 0.11 |
| G8A A15G C39A U54C A57U U78C | 0.04 |
| G7U A28G C44U U72C | 0.07 |
| G7U U48C G53A A56G U67C | 0.17 |
| G7C G19U A20G A21G C39U U69C | 0.06 |

| Variant | self-cleavage |
| --- | --- |
| G7U U26G A28U G33A U48A C71U | 0.02 |
| G7U A28G U72C | 0.15 |
| G7C A18U G33U G53C G73U | 0.17 |
| G7U G10C A13C A28G C32U U51A | 0.08 |
| G8A A13G U26C A45U | 0.07 |
| G7U U31A U60A | 0.2 |
| G7U A18G A45U U60C U69C | 0.09 |
| G8A A13U A28G G33U A45U | 0.03 |
| G7U G24A A57G A65G U66C U67C | 0.04 |
| G8A A15G A21G C32G C44A G61C | 0.04 |
| G8A A15G U58C A64U U69A | 0.04 |
| G8A A13U G42A U54C | 0.19 |
| G7U U43C U60C U69A U76C | 0.08 |
| G7C A21G G30U U58C | 0.06 |
| G7C A18U A20G A28C | 0.28 |
| G7U A20G G36U U41C U72C U78G U80A | 0.11 |
| G7U G22U A35G U48C A64G U72A U76C | 0.04 |
| G7C A20U U31A U51C U58C | 0.07 |
| G7U A18G U31A U67C U76C | 0.05 |
| G7U G10A A18G U48C | 0.17 |
| G7U A20G A28C U66A | 0.05 |
| G7U A28G G52A U80C | 0.19 |
| G7C U31A A35C U66C C81A | 0.3 |
| G7U A15U A21G G22U U41C U48C | 0.02 |

| Variant | self-cleavage |
| --- | --- |
| G8A A15G C39G U43C A57G U60C | 0.12 |
| G7U C29U A45U U60C A77G | 0.35 |
| G7U U31C C32U U41C A45G A65G | 0.03 |
| G7A U54G U60C U67A | 0.06 |
| G7C C11A G24A U48C | 0.23 |
| G7U A35G U60C U67C | 0.1 |
| G7U U25C U78C | 0.09 |
| G7U A15U A28U A35U U51G | 0.04 |
| G7C A20G C32U U72C | 0.13 |
| G7U A15U U43A U72C U76A | 0.06 |
| G7C A18G U25C A56G C62U U76A | 0.04 |
| G7U G24A A64G | 0.28 |
| G7U U43A U72A U80A | 0.1 |
| G7U U31C A35G | 0.16 |
| G8A A15G G30U A35U U80C | 0.06 |
| G8A A13G A47G U72C | 0.06 |
| G7U A28G G63C U80C | 0.15 |
| G7U C11G A28U A47G U48G A57G U66C | 0.04 |
| G7U A18G C32U | 0.2 |
| G7U U31A U69A | 0.13 |
| G7U A13G U51A C68U | 0.07 |
| G7U G9C U60A | 0.05 |
| G7U G30U A56G | 0.13 |
| G7U U31C U66C U72A C79A U80A | 0.1 |

| Variant | self-cleavage |
| --- | --- |
| G7U U26A A28G A45U U78C | 0.08 |
| G7U U43C A65G | 0.08 |
| G7U A18U A28G | 0.11 |
| G7U C12U A35U U58C | 0.05 |
| G8A A13U C17U U41C U48C U60C A64G | 0.06 |
| G7C A13G U60C | 0.21 |
| G8A A13G C38U | 0.08 |
| G7U U41C U51C G63C A64G | 0.15 |
| G7C G19U A56G U72C | 0.36 |
| G7U A45U G52C U78C | 0.18 |
| G7A U49A U60C | 0.06 |
| G7U A28C C29G C37A U54A C68A | 0.04 |
| G7U A13G C17U U25A U26C A45G U78C | 0.07 |
| G7C A15G A18G A45G U72C | 0 |
| G8A A13U A64G U72C | 0.24 |
| G7U A13G A28G C68U | 0.06 |
| G7U C32A U69C | 0.07 |
| G7U U43A U51G A56U A77U U78C | 0.04 |
| G8A A13C G24A U49C | 0.08 |
| G8A A15G C34U U51A U76C | 0.21 |
| G7U U31C A35G U74A U78C | 0.24 |
| G7C U25C U60A | 0.17 |
| G7U A15U A35C U41C A77G | 0.07 |
| G7C U49C U67C | 0.15 |

| Variant | self-cleavage |
| --- | --- |
| G7C A18U A45C U51C A57C U67C U76C | 0.08 |
| G7C C23U U51A A56U | 0.2 |
| G8A A15U C68G U69C | 0.07 |
| G8A A15G C29A C37U U54A U69C | 0.06 |
| G7C A47U A64U U66C U67C | 0.14 |
| G7C A35G C38U U51C | 0.43 |
| G7C U31A U41C U43C A64C | 0.05 |
| G7U A20G A56U U69C | 0.07 |
| G7U C14U A47U C59U U60C U66C U78C | 0.07 |
| G7C G33A U72A | 0.25 |
| G8A A15G A21G A65G | 0.39 |
| G7C U26C A77U | 0.18 |
| G7C A21G C27U C38A A45U U49C U78C | 0.03 |
| G7C C44U A47U C59U C62U U66C U78C | 0.04 |
| G7U G9A A57U G73C | 0.08 |
| G7U A15U C39A A56G U72A U74C | 0.06 |
| G7C G53C U72C U78C | 0.09 |
| G7U A18C U25C | 0.05 |
| G7U A18U A56G U60G | 0.16 |
| G7C U49C G53A U69A | 0.08 |
| G7U A21G C27A U60C | 0.16 |
| G7U U26G A28U G33A | 0.13 |
| G7C A18U U41C U51C | 0.09 |
| G7A U49C U54C | 0.37 |

| Variant | self-cleavage |
| --- | --- |
| G7U G9U A15U C50A U51C U60G A75G | 0.07 |
| G7A U48C A57G U67C U78A | 0.04 |
| G7C C23U U51A A56G A65U U66C U72A | 0.04 |
| G7C G9A U60A A65U A75G U78C | 0.04 |
| G7U U43C U69A | 0.07 |
| G7C C27U A28G A35G A47U | 0.27 |
| G7U G33C U51A U80C | 0.05 |
| G8A A13U U25C U80C | 0.19 |
| G7U C23G A28G U41C | 0.21 |
| G7U A13U A20G C23U C32A G61A G73A | 0.05 |
| G7C C14U G33C C38A | 0.05 |
| G8A A15G A20G U67C U78A | 0.09 |
| G7U A15G A21G U26C G52C U60C | 0.06 |
| G7U U25C U72A | 0.23 |
| G7C U54A A56G A65U | 0.06 |
| G7U C29U U31C U41C U49C U80C | 0.05 |
| G7U A28U U54A A56G U67C | 0.05 |
| G7U G16U A64G | 0.06 |
| G7C A13G A28G U31C A56G U60C U69C | 0.09 |
| G7C A18G A56U U66C U69C | 0.13 |
| G8A A15G G33U U41A U51A U60A U66C | 0.04 |
| G7U A18U A21C A28U A45U | 0 |
| G7U A15G U31A U72A | 0.05 |
| G7C A13G A20G U31C U51C | 0.03 |

| Variant | self-cleavage |
| --- | --- |
| G7U C14U U54A A57G U67C | 0.04 |
| G7U A35G A56U U72A U76C U80A | 0.05 |
| G7U A28G C37A U48C U58C U69A | 0.04 |
| G8A A13G A18G A20U U26A A64G U78C | 0.03 |
| G8A A13G U25C G52C U69A U80A | 0.04 |
| G7U U41C A47G U72C U78G U80A | 0.14 |
| G7U A21G A35G | 0.24 |
| G8A A15G A28G U43C U67A | 0.05 |
| G8A A13G G24A A28U U60A | 0.09 |
| G7C U51A C68U U72C | 0.06 |
| G7A U43C U54A U74G | 0.04 |
| G7U A20G G36A U48C U54C A65G | 0.08 |
| G7A U67C A75G | 0.08 |
| G7A U43C A45G A56G A57G U76C | 0.12 |
| G7U G24A A57G | 0.14 |
| G7C A15G A45G C50U A64U U72A | 0.05 |
| G7C G46A U51C U69A C71U | 0.04 |
| G7A U54C U78A | 0.17 |
| G8A A15G U43C U51G | 0.07 |
| G7U U25G U31A U72A | 0.09 |
| G7U A20G U48C U54C G63U | 0.1 |
| G7U A57G A65G A77G | 0.09 |
| G7U A13G A45G | 0.36 |
